Molecules are shown by their SMILES. “And” between values parts separate entries of the source, which are not always exact repeats. Equal entries are not always repeated. Out of some 48,000 compounds screened, about 1,200 (2.5%) were called active. Inconclusive results (about 2%) are left out.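 Rule for the calls: active = activation of at least 60% and not above a set upper limit (about 1 call in 100 departs from these limits); inconclusive = activation of 40% to 60%, or above that upper limit; inactive = activation under 40%.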 This is one part of the list.

In the experiment the target is Probable G-protein coupled receptor 32 (Homo sapiens) (UniProt O75388). Put plainly: qHTS for Agonists of Human Resolvin D1 Receptor DRV1. Note: 0% is about no effect. The settings on record: CHO-K1 GPR32 beta-arrestin PathHunter luminescence, 90 min; at 76.9 µM; active compounds read high; zero percent set by DMSO-only wells. A digest of the protocol: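 Engineered CHO-K1 line co-expressing GPR32-ProLink and EA-beta-arrestin. Compound treatment lasted 90 min at 37 °C. Luminescence was recorded after 1 h with substrate at ambient temperature, relative to DMSO basal wells.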
Sequence of UniProt O75388 (O75388 whole entry, looked up): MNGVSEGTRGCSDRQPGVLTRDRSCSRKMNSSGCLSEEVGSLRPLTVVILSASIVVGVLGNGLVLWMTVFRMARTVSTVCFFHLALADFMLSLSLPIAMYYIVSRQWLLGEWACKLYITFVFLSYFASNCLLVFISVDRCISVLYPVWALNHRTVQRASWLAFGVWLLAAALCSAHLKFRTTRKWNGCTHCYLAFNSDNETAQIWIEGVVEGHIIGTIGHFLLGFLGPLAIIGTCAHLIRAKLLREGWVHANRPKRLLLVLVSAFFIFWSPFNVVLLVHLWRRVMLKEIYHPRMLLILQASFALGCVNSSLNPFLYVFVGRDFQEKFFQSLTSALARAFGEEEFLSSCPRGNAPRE
(In general: In qHTS, concentration-response curves come from the screen itself.)
On to `O=C1c2oc3ccccc3c(=O)c2C(c2ccccc2F)N1Cc1ccc2c(c1)OCO2` (stereo not given), for which the activation was inactive: -22.7%.

With `O=C(Nc1cccc2cccnc12)c1cccc2c(Br)cccc12`, the activation was inactive: 20.4%.

As for `Cc1cc(C)cc(NC(c2cccc(Cl)c2)c2nnc(-c3ccccc3)o2)c1` (stereo not given), the activation was inactive: -13.3%.

In the case of `Cc1c(C(=O)N(C)c2ccccc2)sc2nc(-c3ccc(F)cc3)cn12`, the activation was inactive: -20.1%.

For `CCc1ccccc1NC(=O)Cn1c(C(=O)OC)cc2oc(C)cc21`, the activation was inactive: -7.3%.

Consider `CCOC(=O)c1ccc(NC(=O)c2cccc3c(=O)c4c([nH]c23)CCCC4)cc1`, for which the activation was inactive: -9.86%.

Take `COc1ccc(NC(=O)Cn2ccn(Cc3ccccc3)c(=O)c2=O)cc1Cl`: the activation was inactive: -5.52%.

`Cc1ccc2onc(CNC(=O)N(C)Cc3ccccc3)c2c1`: the activation was inactive: -7.12%.

On to `CCN(CC)CCNC(=O)c1sc2nc(C)cc(C)c2c1-n1cccc1`, for which the activation is inactive: 1.88%.

`COc1ccc(-n2c(Cc3ccccc3)nnc2SCc2nc(-c3ccccc3C)no2)cc1`: the activation was inactive: -34.9%.

Regarding `CN(C(=O)CSc1cn(CC(=O)N2CCCC2)c2ccccc12)c1ccccc1`, the activation is inactive: -11.5%.

In the case of `O=C1c2[nH]nc(-c3ccccc3O)c2C(c2cccc(Br)c2)N1Cc1ccncc1` (stereo not given), the activation was inactive: -7.99%.

`CN(C)c1ccc(CNC(=O)Cn2c(=O)oc3cc(S(=O)(=O)NCc4ccccc4)ccc32)cc1`: the activation was inactive: -14.6%.

On to `CCC1CN(C(=O)N2CCC(C(=O)NCCCc3ccccc3)CC2)c2ccccc2O1` (stereo not given), for which the activation was inactive: -9.98%.

For `CCN1CCN(c2cc(C)c3cc(NC(=O)c4cc(Br)ccc4Cl)ccc3n2)CC1`, the activation was inactive: -10.3%.

Turning to `CCCC12CN3CC(C)(CN(C1)C3c1cn(CC)c3ccccc13)C2=O` (stereo not given), the activation was inactive: -1.89%.

As for `CC(=O)N1CCCc2cc(S(=O)(=O)N3CCC(C(=O)NCc4ccccc4Cl)CC3)ccc21`, the activation was inactive: -7.92%.

Regarding `O=C(NCc1ccccc1Cl)c1ccc2nc(Cc3ccccc3)oc2c1`, the activation was inactive: -12.8%.

Turning to `CCOC(=O)c1c(C)[nH]c(CCC(=O)Nc2ccccc2OCC)c1C`, the activation was inactive: -15.6%.

For the compound `COc1ccc2oc(=O)cc(CN3CCN(c4ccccc4OC)CC3)c2c1`, the activation is inactive: -12.3%.

Regarding `COCCCNC(=O)CSc1nc(-c2ccc(OC)cc2)[nH]c1-c1ccc(OC)cc1`, the activation is inactive: -29%.

Take `Cc1nn(CCC(=O)N2CCN(c3ccccc3F)CC2)c(C)c1S(=O)(=O)N1CCCC1`: the activation was inactive: -0.872%.

With `COc1ccc(C(=O)Nc2cc3cc(Cl)ccc3oc2=O)cc1OC`, the activation was inactive: -23.3%.

In the case of `COc1ccc(CNC(=O)c2ccc(CS(=O)(=O)c3ccc(OC)cc3)o2)cc1`, the activation is inactive: -10.5%.

With `COc1cccc(-c2nn(C)c3sc(C(=O)NCc4ccc(C)cc4)cc23)c1`, the activation was inactive: -0.148%.

In the case of `CCC1(C)CC(=O)NC1=O` (stereo not given), the activation is inactive: -8.71% and inactive: 3.17%.

Consider `CCOC(=O)c1cc(S(=O)(=O)NCc2ccc(F)cc2)[nH]n1`, for which the activation was inactive: -15.5%.

Turning to `Cc1ccc(-c2nc(C)c(CCNC(=O)C(=O)Nc3ccc(C)c(Cl)c3)s2)cc1`, the activation was inactive: 5.03%.

Consider `CC(=O)Nc1ccccc1OCc1cc(=O)n2c(C)csc2n1`, for which the activation is inactive: 24.5%.

Turning to `COc1ccc2nc(SCc3ncc(C)c(OC)c3C)[nH]c2c1`, the activation was inactive: 39.9%.

Turning to `Cc1ccc(NC(=O)CSc2ncc3c(n2)-c2ccccc2N(C)S3(=O)=O)c(Cl)c1`, the activation was inactive: -15.2%.

For the compound `COc1ccc(CN(C)c2ccc(-c3nc(C)no3)cc2[N+](=O)[O-])cc1`, the activation was inactive: -2.24%.

As to `Cc1cc(=O)n2nc(N3CCC(C(=O)NCc4ccccc4F)CC3)sc2n1`, the activation was inactive: -10.7%.

Consider `CN1CCN(CCNC(=O)c2cnn(-c3cccc(Cl)c3)c2C2CCN(C(=O)OC(C)(C)C)CC2)CC1`, for which the activation was inactive: -4.41%.

For the compound `CCN(CCCNC(=O)CSc1cc(=O)n(C)c2cc(Cl)ccc12)c1ccccc1`, the activation is inactive: -1.6%.

On to `CCc1ccc(CNC(=O)Cn2nc(C)c3c(C)n(-c4ccc(C)cc4)nc3c2=O)cc1`, for which the activation was inactive: -10.3%.

With `CCC(CC)C(=O)Nc1cccc(-c2nc3ncccn3c2C)c1`, the activation was inactive: 25.2%.

As to `O=C(Nc1ccc(F)cc1F)c1cc2ccc3cccnc3c2[nH]1`, the activation is inactive: -4.6%.

Take `Cc1cccc(C)c1NC(=O)N1CCC(C(N)=O)(N2CCCCC2)CC1`: the activation was inactive: -16.2%.

As for `Cc1ccccc1Nc1cc(C(=O)NC2CCC(C)CC2)c2ccccc2n1` (stereo not given), the activation was inactive: 22.3%.

For the compound `CCOC(=O)c1ccc(NC(=O)c2c(NCc3cccc(OC)c3)sc3c2CCC3)cc1`, the activation was inactive: -21.7%.

As for `CC(C)c1ccc(C(=O)Nc2ccc(-c3nc4ccccc4s3)c(Cl)c2)cc1`, the activation is inactive: 23.9%.

On to `COc1cccc(-n2c(-c3ccco3)nc3c(cnn3-c3ccccc3C)c2=O)c1`, for which the activation is inactive: -4.42%.

Regarding `COc1cccc(C(=O)NCC(c2ccc(N(C)C)cc2)N2CCc3ccccc32)c1OC` (stereo not given), the activation is inactive: -27.5%.

With `COc1ccc2oc(-c3ccc(C)c(NC(=O)c4sc5ccccc5c4Cl)c3)nc2c1`, the activation was inactive: -5.75%.

For `COc1ccc(-c2nc(Cn3c(SCc4cccc(F)c4)nc4cccnc43)c(C)o2)cc1`, the activation is inactive: -17.4%.

As to `Cn1cc(S(=O)(=O)N2CCCCCC2)cc1C(=O)Nc1ccccc1F`, the activation was inactive: 9.18%.

Regarding `COc1ccc(N2CCN(c3oc(-c4ccccc4C)nc3S(=O)(=O)c3ccccc3)CC2)cc1`, the activation is inactive: -11.6%.

On to `Cc1cccc(OCC(=O)Nc2c(C(=O)N3CCN(c4ccccc4)CC3)oc3ccccc23)c1`, for which the activation was inactive: -23.7%.

On to `CCCCN(CCCC)S(=O)(=O)c1ccc(C(=O)Nc2sc3c(c2C(N)=O)CCN(CC)C3)cc1`, for which the activation was inactive: 5.37%.

Consider `COc1cc(NC(=O)Cn2nc(Cc3cccnc3)c3ccccc3c2=O)cc(OC)c1OC`, for which the activation is inactive: -20.5%.

In the case of `CCc1nc2ccccc2n1CCCCOc1ccc(Cl)cc1`, the activation was inactive: -39.6%.

For `Cc1cccc(CSc2nc3ccncc3n2Cc2ccc(C(=O)O)cc2)c1`, the activation was inactive: -7.62%.

For `O=C(Nc1ccc(-c2cn3cccnc3n2)cc1)c1ccccc1F`, the activation is inactive: -0.543%.

Take `Cc1ccc(OCc2ccc(-c3nc(C#N)c(N4CCN(c5cccc(Cl)c5)CC4)o3)o2)cc1`: the activation was inactive: 1.5%.

In the case of `CCOc1ccccc1CNC(=O)CCCn1nc(C)c2sc3ccccc3c2c1=O`, the activation is inactive: -18.3%.

On to `COc1cc(NC(=O)Cn2nc(C(F)(F)F)c3c2CCCC3)cc(OC)c1OC`, for which the activation is inactive: 18.8%.

Take `COc1ccccc1NC(=O)Cn1c(=O)n(CCc2ccccc2)c(=O)c2sc3ccccc3c21`: the activation is inactive: 8.81%.

As to `Cc1nc2c([nH]1)c(=O)n(C)c(=O)n2Cc1ccco1`, the activation is inactive: -5.72% and inactive: 0.204%.

As for `CC1=C(C(=O)Nc2cccc(Cl)c2)C2(CCCCCC2)OC1=O`, the activation was inactive: -24.1%.

`CCOC(=O)c1cccc(NC(=O)c2cc(S(=O)(=O)N3CCCC3)cn2C)c1`: the activation is inactive: -12.7%.

With `Cc1ccc(CSc2oc(-c3ccco3)nc2S(=O)(=O)c2ccc(Cl)cc2)cc1`, the activation is inactive: -15.6%.

With `COc1ccc(-c2onc(C)c2C)cc1S(=O)(=O)Nc1ccc(OC(F)(F)F)cc1`, the activation was inactive: 11.5%.

As to `CCCOC(=O)c1ccc(NC(=O)Cn2nnc3sc4c(c3c2=O)CCC(C(C)(C)C)C4)cc1` (stereo not given), the activation was inactive: -27.6%.

Turning to `Cc1ccc(CNC(=O)CSc2ccc(-c3sc(-c4ccccc4)nc3C)nn2)cc1`, the activation was inactive: -5.03%.

On to `COC(=O)c1cc2sc(C)cc2n1Cc1ccccc1`, for which the activation is inactive: -29.9%.

As for `CCOC(=O)CNC(=O)c1cc2c(=O)n(CC)c3ccccc3c2s1`, the activation was inactive: -3.47%.

For `COc1cccc(CNS(=O)(=O)c2c(C)nc3scc(C)n3c2=O)c1`, the activation is inactive: -3.17%.

For `CCOc1ccc(CCNC(=O)CN2C(=O)c3cccnc3Oc3ccc(C)cc32)cc1OCC`, the activation is inactive: -23.8%.

`COc1ccc(NC(=O)c2ccco2)cc1NC(=O)C(C)Oc1ccc(Cl)cc1Cl` (stereo not given): the activation was inactive: 6.55%.

Turning to `O=S(=O)(c1ccc(Br)cc1)c1nc(-c2ccco2)oc1SCc1ccccc1F`, the activation was inactive: -30.9%.

In the case of `CC(=O)c1cc(-c2ccc(F)cc2)n(CC(=O)NC2CCCCCC2)c1C`, the activation was inactive: -13.3%.

Take `CCCOc1ccc(/C=C/C(=O)Nc2sc3c(c2C(=O)OCC)CCC(C)C3)cc1OC` (stereo not given): the activation was inactive: 0.689%.

Take `CCCOc1ccc(-c2cccc(NS(=O)(=O)c3cccs3)c2)nn1`: the activation was inactive: 0.148%.

As to `O=C(Nc1cccc(C(F)(F)F)c1)c1cc2nc(-c3ccccc3)cc(C(F)(F)F)n2n1`, the activation was inactive: 7.54%.

Regarding `CCOc1ccccc1CNC(=O)CCCn1c(=O)c2cccn2c2cccnc21`, the activation was inactive: -12.8%.

As to `C[N+]1(C)C2CC(OC(=O)[C@H](CO)c3ccccc3)CC1C1OC12` (stereo not given in full), the activation was inactive: -10.8% and inactive: 0.53%.

Turning to `CN(C)CCOC(=O)C(c1ccccc1)C1(O)CCCC1` (stereo not given), the activation was inactive: 24.2%.

Take `COc1ccc(-c2cccc(NS(=O)(=O)c3cccs3)c2)nn1`: the activation is inactive: -1.68%.

Consider `Clc1ccc(N2CCN(Cc3nnc(-c4ccc5c(c4)OCO5)o3)CC2)cc1`, for which the activation is inactive: 3.82%.

With `COc1ccc(NC(=O)CC2Nc3cccc4cccc(c34)NC2=O)cc1` (stereo not given), the activation is inactive: 28.7%.

`CCCCN(CC)C(=O)c1c[nH]c2ccc(S(=O)(=O)Nc3cccc(OC)c3)cc2c1=O`: the activation is inactive: -10.8%.

With `COc1ccc(NC(=O)C2=C(C)Nc3c(C(=O)Nc4ccc(C)cc4)cnn3C2c2cccc(Cl)c2)cc1` (stereo not given), the activation was inactive: -5.61%.

Turning to `O=C(CCCn1c(=O)c2cccn2c2ccccc21)Nc1cccc(Cl)c1`, the activation was inactive: -19.2%.

Regarding `Clc1ccccc1CSc1nncn2c1cc1occc12`, the activation is inactive: -23.3%.

The values above are taken from PubChem BioAssay AID1346428 (National Center for Advancing Translational Sciences (NCATS), 2018).
